Here are results for 7 molecules from paper PMC4058081, “p600 regulates spindle orientation in apical neural progenitors and contributes to neurogenesis in the developing neocortex” (Biology Open, 2014).

Protein sequences, listed by entry. Tags and fused reporters are not part of them. Chains listed by the source or under a name are the forms on record and can include a tag or linker. Residues count along the entry.
FLAG-tagged p600 fragment containing residues 3214–3899 (Q5T4S7, residues 3214-3899): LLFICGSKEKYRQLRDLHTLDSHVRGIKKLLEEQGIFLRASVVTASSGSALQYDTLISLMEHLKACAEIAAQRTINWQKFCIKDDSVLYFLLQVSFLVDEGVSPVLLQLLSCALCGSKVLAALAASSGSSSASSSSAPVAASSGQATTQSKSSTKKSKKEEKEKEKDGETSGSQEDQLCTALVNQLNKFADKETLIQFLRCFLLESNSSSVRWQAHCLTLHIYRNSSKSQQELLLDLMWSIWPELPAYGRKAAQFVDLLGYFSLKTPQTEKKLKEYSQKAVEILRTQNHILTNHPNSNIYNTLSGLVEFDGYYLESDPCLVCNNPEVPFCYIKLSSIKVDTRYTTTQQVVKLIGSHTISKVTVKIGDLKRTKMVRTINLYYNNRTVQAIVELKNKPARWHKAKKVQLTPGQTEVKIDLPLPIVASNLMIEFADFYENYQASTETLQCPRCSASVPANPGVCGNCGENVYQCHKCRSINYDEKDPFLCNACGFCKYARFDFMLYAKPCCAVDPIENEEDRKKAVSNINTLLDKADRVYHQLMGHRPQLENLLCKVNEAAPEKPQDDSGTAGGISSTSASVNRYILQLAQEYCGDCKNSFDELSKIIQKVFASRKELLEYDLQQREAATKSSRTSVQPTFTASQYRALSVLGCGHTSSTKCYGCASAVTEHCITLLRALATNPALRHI
FLAG-tagged p600 fragment containing residues 3910–4851 (Q5T4S7, residues 3910-4851): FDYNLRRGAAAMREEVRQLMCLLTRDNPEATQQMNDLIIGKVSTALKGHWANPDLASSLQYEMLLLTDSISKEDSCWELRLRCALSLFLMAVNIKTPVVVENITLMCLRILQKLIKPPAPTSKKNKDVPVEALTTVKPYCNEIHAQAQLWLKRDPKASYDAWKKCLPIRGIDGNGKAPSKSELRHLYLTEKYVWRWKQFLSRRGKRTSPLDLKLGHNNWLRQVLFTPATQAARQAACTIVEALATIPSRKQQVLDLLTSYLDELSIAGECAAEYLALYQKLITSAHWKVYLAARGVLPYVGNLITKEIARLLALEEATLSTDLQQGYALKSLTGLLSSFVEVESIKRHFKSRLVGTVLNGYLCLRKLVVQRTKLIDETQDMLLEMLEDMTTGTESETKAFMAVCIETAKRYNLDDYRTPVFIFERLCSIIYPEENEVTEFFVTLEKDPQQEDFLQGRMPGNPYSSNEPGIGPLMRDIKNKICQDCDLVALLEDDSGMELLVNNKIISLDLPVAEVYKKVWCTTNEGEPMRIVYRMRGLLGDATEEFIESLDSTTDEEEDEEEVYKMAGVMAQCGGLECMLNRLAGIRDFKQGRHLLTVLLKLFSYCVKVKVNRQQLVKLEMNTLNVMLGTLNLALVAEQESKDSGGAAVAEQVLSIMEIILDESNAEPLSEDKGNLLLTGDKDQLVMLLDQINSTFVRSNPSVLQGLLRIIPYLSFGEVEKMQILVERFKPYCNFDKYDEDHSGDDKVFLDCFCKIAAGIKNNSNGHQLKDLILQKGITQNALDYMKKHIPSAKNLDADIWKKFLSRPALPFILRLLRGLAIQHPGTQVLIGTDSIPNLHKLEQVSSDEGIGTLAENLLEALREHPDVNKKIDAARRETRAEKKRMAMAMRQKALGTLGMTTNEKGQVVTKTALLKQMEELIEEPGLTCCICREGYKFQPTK
FLAG-tagged p600 fragment containing residues 4480–5183 (Q5T4S7, residues 4480-5183): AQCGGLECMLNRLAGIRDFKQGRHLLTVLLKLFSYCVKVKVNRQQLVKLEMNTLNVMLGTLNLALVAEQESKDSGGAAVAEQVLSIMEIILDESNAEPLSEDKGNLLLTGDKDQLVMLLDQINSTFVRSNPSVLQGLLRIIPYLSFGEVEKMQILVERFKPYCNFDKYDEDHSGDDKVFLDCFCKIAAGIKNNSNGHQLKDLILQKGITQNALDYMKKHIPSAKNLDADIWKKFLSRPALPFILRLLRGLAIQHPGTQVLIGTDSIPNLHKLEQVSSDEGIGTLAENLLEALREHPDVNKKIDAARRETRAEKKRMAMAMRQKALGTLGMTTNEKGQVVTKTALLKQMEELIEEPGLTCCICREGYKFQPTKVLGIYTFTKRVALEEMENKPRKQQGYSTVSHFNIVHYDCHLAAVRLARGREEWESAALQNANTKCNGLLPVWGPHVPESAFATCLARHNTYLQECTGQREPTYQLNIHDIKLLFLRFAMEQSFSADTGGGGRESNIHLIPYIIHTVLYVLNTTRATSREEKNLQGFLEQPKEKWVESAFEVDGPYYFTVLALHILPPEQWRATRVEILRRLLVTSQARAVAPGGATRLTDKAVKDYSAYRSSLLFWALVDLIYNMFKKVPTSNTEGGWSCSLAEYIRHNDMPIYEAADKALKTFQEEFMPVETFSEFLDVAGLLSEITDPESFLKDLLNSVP
p600 fragment encompassing residues 4949–5183 (Q5T4S7, residues 4949-5183): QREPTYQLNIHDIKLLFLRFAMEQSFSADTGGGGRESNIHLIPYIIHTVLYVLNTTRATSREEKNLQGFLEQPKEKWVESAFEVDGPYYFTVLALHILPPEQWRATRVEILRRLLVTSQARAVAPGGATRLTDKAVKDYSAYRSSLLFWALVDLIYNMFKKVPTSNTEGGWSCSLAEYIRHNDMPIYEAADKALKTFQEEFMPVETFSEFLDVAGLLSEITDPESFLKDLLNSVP

Results are given in words; binding and its absence hold for the method and conditions named. For part of these data: In cells and extracts the contact can be indirect. Some entries that bind do so weakly or less than the wild type. For part of these data: Tags and fused reporters may be left off the sequences shown.

The target of assay [1] is T1, recombinant p600^4480–5183 (human, UniProt Q5T4S7 4480-5183).
T1 construct: Elutes mostly as a monomer (~75 kDa) in SEC; also called C-terminal portion of p600; source: E. coli BL21-Rosetta, purified (glutathione sepharose, PreScission cleavage, Resource Q)
Description: SEC; analytical SEC, Superdex 200 5/150, 4°C, 10 mM HEPES pH 7.5, 0.15 M NaCl, 1 mM DTT; proteins alone or mixed at 50 µM and incubated 30 min on ice; fractions analysed by SDS-PAGE; both purified. A general note: Size exclusion chromatography separates by hydrodynamic size, large species first.

For assay [2], the target named is T2, Ndel1^1–201 (coiled-coil region of Ndel1) (UniProt Q9GZM8).
T2 sequence: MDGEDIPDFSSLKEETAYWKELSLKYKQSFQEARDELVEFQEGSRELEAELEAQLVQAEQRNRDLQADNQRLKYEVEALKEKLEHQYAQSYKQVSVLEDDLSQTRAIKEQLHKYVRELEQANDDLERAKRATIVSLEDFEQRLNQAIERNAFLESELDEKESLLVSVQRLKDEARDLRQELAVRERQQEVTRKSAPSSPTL
The description is as above.

Assay [3] addresses T2, Ndel1^1–201 (coiled-coil region of Ndel1). In words: SEC; analytical SEC with the binding performed at 10 µM; data not included; both purified.
The target in assay [4] is T3, endogenous Ndel1 (HeLa) (human (endogenous in HeLa)) (UniProt Q9GZM8).
T3 sequence: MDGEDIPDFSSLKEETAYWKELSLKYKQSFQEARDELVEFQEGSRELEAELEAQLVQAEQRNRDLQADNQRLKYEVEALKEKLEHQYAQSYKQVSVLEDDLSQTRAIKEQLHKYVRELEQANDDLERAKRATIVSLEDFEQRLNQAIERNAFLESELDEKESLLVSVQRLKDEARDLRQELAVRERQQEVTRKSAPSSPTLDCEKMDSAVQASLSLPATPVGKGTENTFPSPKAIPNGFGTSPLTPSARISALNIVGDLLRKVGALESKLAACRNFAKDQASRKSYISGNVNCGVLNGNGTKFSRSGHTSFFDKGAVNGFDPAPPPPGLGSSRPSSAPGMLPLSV
Description: co-IP; HeLa cell extracts expressing GFP-Lis1 and one of three FLAG-tagged C-terminal p600 fragments; co-immunoprecipitation with endogenous Ndel1; Western blot.

Assay [5] deals with T4, Ndel1 (mouse (endogenous in mouse brain)) (UniProt Q9ERR1).
T4 sequence: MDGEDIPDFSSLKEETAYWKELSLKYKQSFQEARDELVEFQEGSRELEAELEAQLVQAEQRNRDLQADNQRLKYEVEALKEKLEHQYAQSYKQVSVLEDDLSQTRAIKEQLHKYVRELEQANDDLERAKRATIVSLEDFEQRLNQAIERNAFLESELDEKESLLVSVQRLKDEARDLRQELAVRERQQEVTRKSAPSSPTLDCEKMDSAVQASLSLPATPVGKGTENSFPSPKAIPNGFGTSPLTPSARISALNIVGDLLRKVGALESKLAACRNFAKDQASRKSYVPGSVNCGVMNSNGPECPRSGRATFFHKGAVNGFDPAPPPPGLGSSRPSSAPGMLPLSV
Description: co-IP; mouse brain lysates, immunoprecipitation with Ndel1 antibodies; Myc antibodies and beads alone as negative controls; Western blot.

On to “recombinant p600^4480–5183 (from UniProt Q5T4S7 4480-5183) (domain or fragment)”, for which the binding result in assay [1] is “binds weakly”; in assay [2], “binds weakly”; in assay [3] it was “no binding (condition: at 10 µM)”.

Take “FLAG-tagged p600 fragment containing residues 4480–5183 (from UniProt Q5T4S7 4480-5183) (domain or fragment)”: the binding entry in assay [4] was “binds”.

In the case of “FLAG-tagged p600 fragment containing residues 3910–4851 (from UniProt Q5T4S7 3910-4851) (domain or fragment)”, the binding result in assay [4] is reported as “no binding”.

For the molecule “p600 fragment encompassing residues 4949–5183 (from UniProt Q5T4S7 4949-5183) (domain or fragment)”, the binding entry in assay [2] is “no binding”.

Consider “FLAG-tagged p600 fragment containing residues 3214–3899 (from UniProt Q5T4S7 3214-3899) (domain or fragment)”, for which the binding result in assay [4] is “no binding”.

B1: Lis1 (protein, UniProt P63005 1-410)
chain: MVLSQRQRDELNRAIADYLRSNGYEEAYSVFKKEAELDMNEELDKKYAGLLEKKWTSVIRLQKKVMELESKLNEAKEEFTSGGPLGQKRDPKEWIPRPPEKYALSGHRSPVTRVIFHPVFSVMVSASEDATIKVWDYETGDFERTLKGHTDSVQDISFDHSGKLLASCSADMTIKLWDFQGFECIRTMHGHDHNVSSVAIMPNGDHIVSASRDKTIKMWEVQTGYCVKTFTGHREWVRMVRPNQDGTLIASCSNDQTVRVWVVATKECKAELREHEHVVECISWAPESSYSSISEATGSETKKSGKPGPFLLSGSRDKTIKMWDVSTGMCLMTLVGHDNWVRGVLFHSGGKFILSCADDKTLRVWDYKNKRCMKTLNAHEHFVTSLDFHKTAPYVVTGSVDQTVKVWECR
Regarding B1, the binding result in assay [5] was “binds”.

B2: GFP-Lis1 (protein, UniProt P43034 1-410)
chain: MVLSQRQRDELNRAIADYLRSNGYEEAYSVFKKEAELDVNEELDKKYAGLLEKKWTSVIRLQKKVMELESKLNEAKEEFTSGGPLGQKRDPKEWIPRPPEKYALSGHRSPVTRVIFHPVFSVMVSASEDATIKVWDYETGDFERTLKGHTDSVQDISFDHSGKLLASCSADMTIKLWDFQGFECIRTMHGHDHNVSSVAIMPNGDHIVSASRDKTIKMWEVQTGYCVKTFTGHREWVRMVRPNQDGTLIASCSNDQTVRVWVVATKECKAELREHEHVVECISWAPESSYSSISEATGSETKKSGKPGPFLLSGSRDKTIKMWDVSTGMCLMTLVGHDNWVRGVLFHSGGKFILSCADDKTLRVWDYKNKRCMKTLNAHEHFVTSLDFHKTAPYVVTGSVDQTVKVWECR
For B2, in assay [4], the binding entry is listed as “binds”.
